This is an account of results in PMC9911399, “Two distinct binding modes provide the RNA-binding protein RbFox with extraordinary sequence specificity”.

T1: RBFOX1 RRM RbFoxmut (Fox-RRM*) (Homo sapiens, UniProt Q9NWB1 109-208, R118D;E147R;N151S;E152T)
T1 sequence: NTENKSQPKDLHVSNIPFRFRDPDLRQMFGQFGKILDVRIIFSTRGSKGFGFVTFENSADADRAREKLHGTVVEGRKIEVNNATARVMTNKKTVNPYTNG

B1: CUAUACC (DNA:RNA)
RNA: GGGAGACCGGAAUUCAGAUUGUCCCUAUACCUUAAAUCCCGUCGUAGCCACCA
DNA 1: CAATCTGAATTCCGGTCTCCC
DNA 2: TGGTGGCTACGACGGGATT
B2: UUAAUGU (DNA:RNA)
RNA: B1 RNA with C25U, U28A, A29U, C30G, C31U
DNA 1: CAATCTGAATTCCGGTCTCCC
DNA 2: TGGTGGCTACGACGGGATT
B3: AAUGCGG (DNA:RNA)
RNA: GGGAGACCGGAAUUCAGAUUGUCCAAUGCGGUUAAAUCCCGUCGUAGCCACCA
DNA 1: CAATCTGAATTCCGGTCTCCC
DNA 2: TGGTGGCTACGACGGGATT
B4: UUCGUUC (DNA:RNA)
RNA: B1 RNA with C25U, A27C, U28G, A29U, C30U
DNA 1: CAATCTGAATTCCGGTCTCCC
DNA 2: TGGTGGCTACGACGGGATT
B5: CAUUAAC (DNA:RNA)
RNA: B1 RNA with U26A, A27U, C30A
DNA 1: CAATCTGAATTCCGGTCTCCC
DNA 2: TGGTGGCTACGACGGGATT
B6: GGACUGA (DNA:RNA)
RNA: B3 RNA with A25G, A26G, U27A, G28C, C29U, G31A
DNA 1: CAATCTGAATTCCGGTCTCCC
DNA 2: TGGTGGCTACGACGGGATT
B7: GUUCCAA (DNA:RNA)
RNA: B3 RNA with A25G, A26U, G28C, G30A, G31A
DNA 1: CAATCTGAATTCCGGTCTCCC
DNA 2: TGGTGGCTACGACGGGATT
B8: CGCUGGA (DNA:RNA)
RNA: B1 RNA with U26G, A27C, A29G, C30G, C31A
DNA 1: CAATCTGAATTCCGGTCTCCC
DNA 2: TGGTGGCTACGACGGGATT
B9: CCACCGA (DNA:RNA)
RNA: B3 RNA with A25C, A26C, U27A, G28C, G31A
DNA 1: CAATCTGAATTCCGGTCTCCC
DNA 2: TGGTGGCTACGACGGGATT
B10: UGAGGAC (DNA:RNA)
RNA: B1 RNA with C25U, U26G, U28G, A29G, C30A
DNA 1: CAATCTGAATTCCGGTCTCCC
DNA 2: TGGTGGCTACGACGGGATT
B11: UACCCUU (DNA:RNA)
RNA: B3 RNA with A25U, U27C, G28C, G30U, G31U
DNA 1: CAATCTGAATTCCGGTCTCCC
DNA 2: TGGTGGCTACGACGGGATT
B12: GUAACUG (DNA:RNA)
RNA: B3 RNA with A25G, A26U, U27A, G28A, G30U
DNA 1: CAATCTGAATTCCGGTCTCCC
DNA 2: TGGTGGCTACGACGGGATT
B13: GUGAAGC (DNA:RNA)
RNA: B1 RNA with C25G, A27G, U28A, C30G
DNA 1: CAATCTGAATTCCGGTCTCCC
DNA 2: TGGTGGCTACGACGGGATT
B14: AUACACA (DNA:RNA)
RNA: B1 RNA with C25A, U28C, C31A
DNA 1: CAATCTGAATTCCGGTCTCCC
DNA 2: TGGTGGCTACGACGGGATT
B15: AGUGUCA (DNA:RNA)
RNA: B3 RNA with A26G, C29U, G30C, G31A
DNA 1: CAATCTGAATTCCGGTCTCCC
DNA 2: TGGTGGCTACGACGGGATT
B16: GCCUACC (DNA:RNA)
RNA: B1 RNA with C25G, U26C, A27C
DNA 1: CAATCTGAATTCCGGTCTCCC
DNA 2: TGGTGGCTACGACGGGATT
B17: GGGCGUG (DNA:RNA)
RNA: B3 RNA with A25G, A26G, U27G, G28C, C29G, G30U
DNA 1: CAATCTGAATTCCGGTCTCCC
DNA 2: TGGTGGCTACGACGGGATT
B18: CUUUAUA (DNA:RNA)
RNA: B1 RNA with A27U, C30U, C31A
DNA 1: CAATCTGAATTCCGGTCTCCC
DNA 2: TGGTGGCTACGACGGGATT
B19: UCCACUC (DNA:RNA)
RNA: B3 RNA with A25U, A26C, U27C, G28A, G30U, G31C
DNA 1: CAATCTGAATTCCGGTCTCCC
DNA 2: TGGTGGCTACGACGGGATT
B20: UGCACUU (DNA:RNA)
RNA: B3 RNA with A25U, A26G, U27C, G28A, G30U, G31U
DNA 1: CAATCTGAATTCCGGTCTCCC
DNA 2: TGGTGGCTACGACGGGATT
B21: UAAUCAG (DNA:RNA)
RNA: B3 RNA with A25U, U27A, G28U, G30A
DNA 1: CAATCTGAATTCCGGTCTCCC
DNA 2: TGGTGGCTACGACGGGATT
B22: CCAGGUU (DNA:RNA)
RNA: B1 RNA with U26C, U28G, A29G, C30U, C31U
DNA 1: CAATCTGAATTCCGGTCTCCC
DNA 2: TGGTGGCTACGACGGGATT
B23: CGCAGGA (DNA:RNA)
RNA: B3 RNA with A25C, A26G, U27C, G28A, C29G, G31A
DNA 1: CAATCTGAATTCCGGTCTCCC
DNA 2: TGGTGGCTACGACGGGATT
B24: UGCUGAA (DNA:RNA)
RNA: B1 RNA with C25U, U26G, A27C, A29G, C30A, C31A
DNA 1: CAATCTGAATTCCGGTCTCCC
DNA 2: TGGTGGCTACGACGGGATT
B25: CAGACUA (DNA:RNA)
RNA: B3 RNA with A25C, U27G, G28A, G30U, G31A
DNA 1: CAATCTGAATTCCGGTCTCCC
DNA 2: TGGTGGCTACGACGGGATT
B26: AUGCUCG (DNA:RNA)
RNA: B3 RNA with A26U, U27G, G28C, C29U, G30C
DNA 1: CAATCTGAATTCCGGTCTCCC
DNA 2: TGGTGGCTACGACGGGATT
B27: UCGUGGC (DNA:RNA)
RNA: B1 RNA with C25U, U26C, A27G, A29G, C30G
DNA 1: CAATCTGAATTCCGGTCTCCC
DNA 2: TGGTGGCTACGACGGGATT
B28: CUCUGAU (DNA:RNA)
RNA: B1 RNA with A27C, A29G, C30A, C31U
DNA 1: CAATCTGAATTCCGGTCTCCC
DNA 2: TGGTGGCTACGACGGGATT
B29: GGCCCGG (DNA:RNA)
RNA: B3 RNA with A25G, A26G, U27C, G28C
DNA 1: CAATCTGAATTCCGGTCTCCC
DNA 2: TGGTGGCTACGACGGGATT
B30: GAUGCGU (DNA:RNA)
RNA: B3 RNA with A25G, G31U
DNA 1: CAATCTGAATTCCGGTCTCCC
DNA 2: TGGTGGCTACGACGGGATT
B31: CGCGCGG (DNA:RNA)
RNA: B3 RNA with A25C, A26G, U27C
DNA 1: CAATCTGAATTCCGGTCTCCC
DNA 2: TGGTGGCTACGACGGGATT

Positions count from the first letter of the chain named. This is one part of the list.

The target of this experiment is T1, RBFOX1 RRM RbFoxmut (Fox-RRM*). The experiment is described as follows: EMSA; HiTS-Eq, 1 nM pool, 10 min; buffer printed only for the single-RNA assays: 10 mM Tris pH 7.5, 150 mM NaCl, 3.4 mM EDTA, 0.001% NP-40, 30 C. The following applies: tags: His6 N-terminal (pET28a); label: 5' 32P. The method, boiled down:
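Purified RbFox RRM, wild type or mutant, was incubated for 10 min in 50 µL with 1 nM of a 5′-radiolabelled RNA pool carrying 7 randomized nucleotides, whose flanks were annealed to DNA oligonucleotides, over a series of increasing protein concentrations. Unbound RNA was resolved on 8% native PAGE, cut out, reverse-transcribed, barcoded by PCR and sequenced on an Illumina HiSeq 2500. Relative association constants were derived from changes in read counts for each RNA species versus the control reaction and normalised to the cognate motif.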
(In EMSA bound probe runs differently from free probe, usually more slowly.)
For the molecule B1, the binding signal was 0.0929 KA relative to UGCAUGU.

Turning to B2, the binding signal is 0.139 KA relative to UGCAUGU.

Regarding B3, the binding signal was 0.0885 KA relative to UGCAUGU.

Consider B4, for which the binding signal was 0.0829 KA relative to UGCAUGU.

As to B5, the binding signal is 0.113 KA relative to UGCAUGU.

B6: the binding signal is 0.258 KA relative to UGCAUGU.

Turning to B7, the binding signal is 0.0788 KA relative to UGCAUGU.

With B8, the binding signal was 0.0839 KA relative to UGCAUGU.

With B9, the binding signal was 0.078 KA relative to UGCAUGU.

Take B10: the binding signal was 0.0659 KA relative to UGCAUGU.

Consider B11, for which the binding signal is 0.0744 KA relative to UGCAUGU.

In the case of B12, the binding signal is 0.0807 KA relative to UGCAUGU.

Consider B13, for which the binding signal was 0.107 KA relative to UGCAUGU.

B14: the binding signal is 0.0866 KA relative to UGCAUGU.

Turning to B15, the binding signal is 0.143 KA relative to UGCAUGU.

With B16, the binding signal was 0.0624 KA relative to UGCAUGU.

For the molecule B17, the binding signal is 0.294 KA relative to UGCAUGU.

As for B18, the binding signal was 0.132 KA relative to UGCAUGU.

As for B19, the binding signal was 0.0752 KA relative to UGCAUGU.

Regarding B20, the binding signal is 0.0762 KA relative to UGCAUGU.

Turning to B21, the binding signal is 0.0626 KA relative to UGCAUGU.

With B22, the binding signal was 0.0813 KA relative to UGCAUGU.

In the case of B23, the binding signal is 0.0809 KA relative to UGCAUGU.

In the case of B24, the binding signal is 0.12 KA relative to UGCAUGU.

Turning to B25, the binding signal is 0.063 KA relative to UGCAUGU.

As to B26, the binding signal was 0.194 KA relative to UGCAUGU.

Turning to B27, the binding signal was 0.116 KA relative to UGCAUGU.

Take B28: the binding signal was 0.119 KA relative to UGCAUGU.

B29: the binding signal is 0.0923 KA relative to UGCAUGU.

On to B30, for which the binding signal is 0.11 KA relative to UGCAUGU.

For B31, the binding signal was 0.0961 KA relative to UGCAUGU.
